Reference: PubChem BioAssay (NCATS)
The shares of active, inactive and inconclusive entries below differ from those in the screen. For some assays here: Where the call is inconclusive, the potency comes from a doubtful curve fit. Active and inactive are the calls of the source. The call rests on the fitted dose curve; in most records, active means well fitted curve in the direction sought with a large enough effect; inconclusive means small, poorly fitted or top-dose-only effect, or another doubt; inactive means no such curve, though single readings can be large; an effect the other way counts as inactive or inconclusive.

What was measured:
[1] = P-glycoprotein substrates identified in KB-8-5-11 adenocarcinoma cell line, qHTS therapeutic library screen (AID 1346987); details: activity change, negative = cytotoxicity: at 44.5 µM (top of the series); further: nearly all actives have a fitted effect of over 65% in size
Outline: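 In this qHTS, P-gp-rich KB-8-5-11 cells received library compounds across a concentration range. Viability was quantified by luminescence after 72 h at 37 degree C.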

[2] = Primary fluorescence-based thiol-reactive (MSTI) qHTS assay for identification of artifact compounds. (AID 1845221);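 further: thiol-reactive compounds lower the probe fluorescence signal; nearly all actives have a fitted effect of over 65% in size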
Outline: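 Compounds were incubated 1 h at room temperature in the dark with the MSTI probe (4 uM) in PBS pH 7.4, 2% DMSO. Signals were normalized between Acetyl-MSTI and MSTI.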

[3] = system: C33A; assay: Primary qHTS to identify gynecologic anti-cancer compounds using libraries of approved drugs and bioactive compounds (AID 1345084); details: Gynecologic cancer cell panel viability, ATPlite luminescence, 48 h; series mostly up to 57.5 µM; further: nearly all actives have a fitted effect of over 55% in size; on activity change, negative = cytotoxicity: on the % scale 0 is the no-effect control and ±100 the full control effect
Outline: (§1)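 Luminescence from the ATPlite ATP-monitoring reagent indicates viable cell number; lower signal means cytotoxicity. Cells received compound 16 h after seeding and were exposed for 48 h across five concentrations.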

[4] = system: CAOV3; assay: as above; details: Gynecologic cancer cell panel viability, ATPlite luminescence, 48 h; series mostly up to 57.5 µM
Outline: as §1

[5] = system: SKOV3; assay: as above; details: Gynecologic cancer cell panel viability, ATPlite luminescence, 48 h; series mostly up to 57.5 µM
Outline: as §1

[6] = Primary qHTS for inhibitors of nuclear receptor binding SET domain protein 2 (NSD2) in an isogenic RCH-ACV NSD2 p.E1099K mutant (9B) (AID 1645876); details: activity change, negative = viability loss: at 44.9 µM (top of the series) unless noted; further: nearly all actives have a fitted effect of over 70% in size
[7] = Primary redox qHTS assay for identification of artifact compounds. (AID 1845223)
Outline: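 Redox-cycling detection via DTT (250 uM final) oxidation coupled to Amplex Red (25 uM)/HRP (250 mU/mL) in HBSS. 15 min preincubation plus 30 min after DTT, room temperature. Ex/Em 525/598 nm; 4-parameter Hill fit against DMSO and 10 uM DA3003.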

[8] = system: HeLa; assay: Primary qHTS to identify gynecologic anti-cancer compounds using libraries of approved drugs and bioactive compounds (AID 1345084); details: Gynecologic cancer cell panel viability, ATPlite luminescence, 48 h; series mostly up to 57.5 µM; further: nearly all actives have a fitted effect of over 55% in size; on activity change, negative = cytotoxicity: on the % scale 0 is the no-effect control and ±100 the full control effect
Outline: as §1

[9] = Primary qHTS for inhibitors of nuclear receptor binding SET domain protein 2 (NSD2) in an RCH-ACV wild type WT cells (2C) (AID 1645877); details: activity change, negative = cell killing: at 44.9 µM (top of the series) unless noted; further: nearly all actives have a fitted effect of over 70% in size
[10] = system: Hek293T; assay: Primary qHTS to identify gynecologic anti-cancer compounds using libraries of approved drugs and bioactive compounds (AID 1345084); details: Gynecologic cancer cell panel viability, ATPlite luminescence, 48 h, control line for the selectivity index; series mostly up to 57.5 µM; further: nearly all actives have a fitted effect of over 55% in size; on activity change, negative = cytotoxicity: on the % scale 0 is the no-effect control and ±100 the full control effect
Outline: as §1

[11] = system: Zika virus NS2B-NS3 protease (unlinked complex); assay: Primary screen GU Rhodamine qHTS for Zika virus inhibitors: Unlinked NS2B-NS3 protease assay (AID 1347159); details: Recombinant ZIKV NS2B-NS3 protease, Rhodamine110 substrate fluorescence; activity change, negative = inhibition: at 107 µM (top of the series); further: nearly all actives have a fitted effect of over 60% in size
Outline: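 Buffer 10 mM Tris-HCl pH 8.0, 0.01% Tween 20. Unlinked protease 25 nM; compound preincubation 15 min, RT, protected from light. Substrate Rhod110, 1.5 microM; ~15% conversion in 15 min.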

[12] = system: Tov-21-G; assay: Primary qHTS to identify gynecologic anti-cancer compounds using libraries of approved drugs and bioactive compounds (AID 1345084); details: Gynecologic cancer cell panel viability, ATPlite luminescence, 48 h; series mostly up to 57.5 µM; further: nearly all actives have a fitted effect of over 55% in size; on activity change, negative = cytotoxicity: on the % scale 0 is the no-effect control and ±100 the full control effect
Outline: as §1

[13] = system: CASKI; assay: as above; details: Gynecologic cancer cell panel viability, ATPlite luminescence, 48 h; series mostly up to 57.5 µM
Outline: as §1

[14] = system: JEG-3; assay: as above; details: Gynecologic cancer cell panel viability, ATPlite luminescence, 48 h; series mostly up to 57.5 µM
Outline: as §1

[15] = system: PA-1; assay: as above; details: Gynecologic cancer cell panel viability, ATPlite luminescence, 48 h; series mostly up to 57.5 µM
Outline: as §1

[16] = system: Tov112D; assay: as above; details: Gynecologic cancer cell panel viability, ATPlite luminescence, 48 h; series mostly up to 57.5 µM
Outline: as §1

[17] = Primary qHTS for small molecule stabilizers of the endoplasmic reticulum resident proteome: Secreted ER Calcium Modulated Protein (SERCaMP) assay (AID 1508630); details: SH-SY5Y GLuc-SERCaMP (Gaussia luciferase released on ER calcium loss) secretion, thapsigargin, luminescence
Outline: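 The SH-SY5Y reporter protocol was run at 3 concentrations up to 38.3 uM (primary) or 11 concentrations (follow-up): 16 h compound, 100 nM thapsigargin for 4 h, then extracellular luciferase luminescence.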

[18] = system: Zika virus NS2B-NS3 protease (linked construct); assay: Primary screen NINDS Rhodamine qHTS for Zika virus inhibitors (AID 1347160); further: nearly all actives have a fitted effect of over 55% in size
Outline: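 Aprotinin served as in-plate control. Conditions: 25 nM linked NS2B-NS3, pH 8.0 Tris buffer, titrated compounds, 15 min preincubation and 15 min reaction with 1.5 microM Rhod110 substrate at room temperature.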

[19] = system: OV90; assay: Primary qHTS to identify gynecologic anti-cancer compounds using libraries of approved drugs and bioactive compounds (AID 1345084); details: Gynecologic cancer cell panel viability, ATPlite luminescence, 48 h; series mostly up to 57.5 µM; further: nearly all actives have a fitted effect of over 55% in size
Outline: as §1
Potency means the concentration at half of the fitted maximal effect; tags describe the fitted curve by direction and shape.

COc1cc(CC2COC(c3ccc(OC4OC(CO)C(O)C(O)C4O)c(OC)c3)C2CO)ccc1O (configuration not stated)
Potency [1]: inactive
Potency [2]: inconclusive: 10.3 µM [inhibitor, partial curve]
Potency [3]: inactive
Potency [4]: inactive
Potency [5]: inactive

COc1c2c(c(C)c3c1C(=O)OC3)OC1(C)CC(O)C34OC(OC)(CCC3(C)C1C2)OC4(C)CO (configuration not stated)
Potency [6]: inactive
Potency [2]: inconclusive: 18.4 µM [inhibitor, single point]
Potency [7]: inconclusive: 11.6 µM [activator, single point]
Potency [3]: inactive
Potency [8]: inactive

OC[C@H]1O[C@@H](Oc2ccc3c(c2)OC[C@H]2c4cc5c(cc4O[C@@H]32)OCO5)[C@H](O)[C@@H](O)[C@@H]1O
Potency [6]: inconclusive: 11.2 µM [inhibitor, single point]
Potency [9]: active: 7.96 µM
Potency [2]: inactive
Potency [3]: inactive
Potency [10]: inactive

C=C1CC[C@@H]2[C@](C)(CO)[C@H](O[C@@H]3O[C@H](CO)[C@@H](O)[C@H](O)[C@H]3O)CC[C@@]2(C)[C@@H]1C/C=C1/C(=O)OC[C@H]1O
Potency [11]: inconclusive: 22.4 µM [inhibitor, partial curve, poor fit]
Potency [9]: inactive
Potency [2]: active: 6.53 µM
Potency [3]: inactive
Potency [4]: inactive

C[C@@H]1O[C@@H](O[C@H]2[C@H](OC(=O)[C@]34CCC(C)(C)C[C@H]3C3=CCC5[C@@]6(C)C[C@@H](O)[C@@H](O[C@@H]7O[C@H](CO)[C@@H](O)[C@H](O)[C@H]7O)[C@@](C)(CO)C6[C@H](O)C[C@@]5(C)[C@]3(C)CC4)OC[C@H](O)[C@@H]2O)[C@H](O)[C@H](O[C@@H]2OC[C@](O)(CO)[C@H]2O)[C@H]1O[C@@H]1OC[C@@H](O)[C@H](O[C@H]2O[C@H](C)[C@@H](O)[C@H](O)[C@@H]2O)[C@H]1O (some centres not stated)
activity change, negative = viability loss [6]: inactive: -25.2% [at 9.23 µM]
Potency [9]: inconclusive: 3.07 µM [inhibitor, partial curve, poor fit]
Potency [7]: inconclusive: 0.799 µM [activator, full curve, poor fit]
activity change, negative = cytotoxicity [3]: inactive: 7.61% [at 6.55 µM]
activity change, negative = cytotoxicity [4]: inactive: 0.345% [at 6.55 µM]
activity change, negative = cytotoxicity [12]: inactive: -0.147% [at 6.55 µM]

COc1cc2c(cc1O)CC[C@H]1[C@@H]2CC[C@]2(C)[C@H](O)CC[C@@H]12
Potency [1]: active: 1.3 µM
Potency [9]: active: 0.916 µM
Potency [3]: inconclusive: 25.1 µM [cytotoxic, single point]
Potency [13]: inconclusive: 3.16 µM [cytotoxic, full curve]
Potency [10]: inconclusive: 3.55 µM [cytotoxic, full curve]
Potency [14]: inconclusive: 11.2 µM [cytotoxic, partial curve]
Potency [15]: inconclusive: 7.08 µM [cytotoxic, full curve, poor fit]
Potency [5]: active: 3.16 µM
Potency [12]: inconclusive: 3.98 µM [cytotoxic, full curve]
Potency [16]: active: 1 µM

COc1cc(O[C@@H]2O[C@H](CO[C@H]3OC[C@](O)(CO)[C@H]3O)[C@@H](O)[C@H](O)[C@H]2O)cc(OC)c1O
Potency [6]: inactive
Potency [2]: inconclusive: 11.6 µM [inhibitor, partial curve, poor fit]
Potency [3]: inactive
Potency [10]: inactive

O=c1[nH]c2cc(C(F)(F)F)c(N3CCOCC3)cc2n(CP(=O)(O)O)c1=O
activity change, negative = inhibition ([17]; at 38.4 µM (top of the series)): inactive: -19.7%

C/C=C(/C)C(=O)O[C@H]1C=C(C)C[C@H](OC(=O)c2ccc(O)cc2)C2[C@](O)(C(C)C)CC[C@@]21C (some centres not stated)
Potency [18]: inconclusive: 12.6 µM [inhibitor, partial curve, poor fit]
Potency [3]: inactive

Cc1ccc2c(c1)c1c3n2CCNC3CCC1 (configuration not stated)
Potency ([17]; activity change, negative = inhibition: at 38.4 µM (top of the series) unless noted): inconclusive: 12.6 µM [inhibitor, partial curve, poor fit]
Potency [6]: inactive
Potency [9]: inconclusive: 26.6 µM [inhibitor, single point]
Potency [4]: inactive
Potency [13]: inactive
Potency [19]: inactive
Potency [5]: inconclusive: 0.398 µM [rising, full curve, poor fit]

Cc1ccc(C)c(NC(=O)CNS(=O)(=O)c2ccc3[nH]c(=O)oc3c2)c1
Potency [18]: inconclusive: 15.8 µM [inhibitor, single point]
Potency [2]: inconclusive: 18.9 µM [inhibitor, partial curve]
Potency [7]: inactive
Potency [4]: inactive
Potency [13]: inconclusive: 35.5 µM [rising, single point]
Potency [5]: inactive

COc1cc(/C=C/C(=O)O[C@H]2[C@H](O)[C@@H](CO)O[C@@]2(CO)O[C@H]2O[C@H](CO)[C@@H](O)[C@H](O)[C@H]2O)ccc1O
Potency [9]: inactive
Potency [4]: inactive
Potency [13]: inactive
Potency [10]: inactive
Potency [14]: inactive
Potency [5]: inactive
